Laboratory results from the supplement of paper PMC9174493.
The other results are listed elsewhere or left out. Single values of this set are uncertain. Values with irradiation are relative to irradiated vehicle.

Columns and labels:
A549-Dual [1] = assay: NF-kB reporter (SEAP) activity, viability-corrected, relative to vehicle (fold change vs vehicle); higher = more activation of STING-IRF / NF-kB immune response reporter
A549-Dual [2] = assay: ISRE reporter (Lucia luciferase) activity, viability-corrected, relative to vehicle (fold change vs vehicle); higher = more activation of STING-IRF / NF-kB immune response reporter
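Throughout, for NF-kB reporter (SEAP) activity, viability-corrected, relative to vehicle: viability correction based on the alamar blue assay, with concentrations leaving 10% survival or less dropped.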

| Structure (SMILES) | NF-kB reporter (A549-Dual [1]; 0.1 µM, irradiation: 8 Gy/4 fr) | NF-kB reporter (A549-Dual [1]; 0.1 µM, irradiation: none) | NF-kB reporter (A549-Dual [1]; 0.3 µM, irradiation: 8 Gy/4 fr) | NF-kB reporter (A549-Dual [1]; 0.3 µM, irradiation: none) | NF-kB reporter (A549-Dual [1]; 1 µM, irradiation: 8 Gy/4 fr) | NF-kB reporter (A549-Dual [1]; 1 µM, irradiation: none) | NF-kB reporter (A549-Dual [1]; 3 µM, irradiation: 8 Gy/4 fr) | NF-kB reporter (A549-Dual [1]; 3 µM, irradiation: none) | NF-kB reporter (A549-Dual [1]; 10 µM, irradiation: 8 Gy/4 fr) | NF-kB reporter (A549-Dual [1]; 10 µM, irradiation: none) | ISRE reporter (A549-Dual [2]; 0.1 µM, irradiation: 8 Gy/4 fr) | ISRE reporter (A549-Dual [2]; 0.1 µM, irradiation: none) | ISRE reporter (A549-Dual [2]; 0.3 µM, irradiation: 8 Gy/4 fr) | ISRE reporter (A549-Dual [2]; 0.3 µM, irradiation: none) | ISRE reporter (A549-Dual [2]; 1 µM, irradiation: 8 Gy/4 fr) | ISRE reporter (A549-Dual [2]; 1 µM, irradiation: none) | ISRE reporter (A549-Dual [2]; 3 µM, irradiation: 8 Gy/4 fr) | ISRE reporter (A549-Dual [2]; 3 µM, irradiation: none) | ISRE reporter (A549-Dual [2]; 10 µM, irradiation: 8 Gy/4 fr) | ISRE reporter (A549-Dual [2]; 10 µM, irradiation: none) |
| --- | --- | --- | --- | --- | --- | --- | --- | --- | --- | --- | --- | --- | --- | --- | --- | --- | --- | --- | --- | --- |
| COc1ccc2c(c1)nc(S(=O)Cc1ncc(C)c(OC)c1C)[n]2[Na] (stereo not given) [Omeprazole Sodium] | 0.733 | 0.905 | 0.8 | 0.801 | 0.831 | 0.689 | 1.2 | 0.675 | 0.892 | 0.673 | 0.714 | 0.849 | 0.716 | 0.667 | 0.671 | 0.625 | 0.857 | 0.726 | 0.88 | 0.564 |
| Nc1nc(Cl)nc2c1ncn2C1CC(O)C(CO)O1 (stereo not given) [Cladribine] | 0.909 | 0.93 | 0.858 | 0.869 | 0.776 | 1.15 | 2.07 | 3.76 | 1.76 | 3.17 | 0.946 | 0.996 | 1.04 | 1.07 | 0.762 | 1.96 | 0.681 | 4.03 | 0.497 | 2.66 |
| CC(=O)OC1(C(C)=O)CCC2C3C=C(Cl)C4=CC(=O)C5CC5C4(C)C3CCC21C (stereo not given) [Cyproterone Acetate] | 0.858 | 0.902 | 0.79 | 0.86 | 0.736 | 0.85 | 0.718 | 0.741 | 0.787 | 0.866 | 0.819 | 0.658 | 0.779 | 0.595 | 0.638 | 0.635 | 0.571 | 0.554 | 0.529 | 0.573 |
| O=C([O-])c1cc(=O)c2c(OCC(O)COc3cccc4oc(C(=O)[O-])cc(=O)c34)cccc2o1.[Na+].[Na+] [Disodium Cromoglycate] | 1.34 | 1.23 | 1.34 | 1.24 | 0.921 | 1.05 | 1.3 | 1.07 | 1.24 | 1.14 | 1.22 | 1.61 | 1.24 | 1.4 | 1.42 | 1.06 | 1.32 | 1.25 | 1.22 | 1.02 |
| Cc1ccc(Nc2c(F)cccc2Cl)c(CC(=O)O)c1 [Lumiracoxib] | 0.898 | 1.24 | 1 | 1.48 | 1.28 | 0.944 | 1.29 | 1.02 | 0.859 | 0.865 | 1.05 | 0.949 | 0.823 | 0.896 | 0.891 | 0.951 | 0.867 | 0.97 | 0.901 | 0.9 |
| NCCc1c[nH]cn1 [Histamine] | 1.11 | 1.28 | 1.22 | 1.19 | 1.23 | 0.983 | 1.55 | 0.973 | 1.04 | 1.03 | 1.05 | 1.17 | 1.04 | 1.15 | 1.06 | 1.19 | 0.98 | 1.22 | 1.24 | 1.07 |
| CC(C)Cc1ccc(C(C)C(=O)O)cc1 (stereo not given) [Ibuprofen] | 0.956 | 1.36 | 1.09 | 1.52 | 1.59 | 1.06 | 1.59 | 1.02 | 1.38 | 0.869 | 1.04 | 1.1 | 0.886 | 0.904 | 0.973 | 1.07 | 0.917 | 1.08 | 0.907 | 0.986 |
| CCOCc1nc2c(N)nc3ccccc3c2n1CC(C)(C)O [Resiquimod] | 1.08 | 1.65 | 1.03 | 1.58 | 1.35 | 1.24 | 1.76 | 1.31 | 1.27 | 1.22 | 1.09 | 1.59 | 0.979 | 1.43 | 1.27 | 1.17 | 1.02 | 1.14 | 1.5 | 1.09 |
| CC(=O)OC1CCC2(C)C(=CCC3C2CCC2(C)C(c4cccnc4)=CCC32)C1 (stereo not given) [Abiraterone Acetate] | 1.04 | 1.01 | 0.959 | 0.942 | 1.05 | 0.964 | 0.884 | 1.1 | 1 | 0.942 | 1.03 | 0.915 | 0.907 | 0.904 | 0.956 | 0.85 | 0.851 | 0.799 | 0.947 | 0.777 |
| Cl.N=C1CCCN1Cc1[nH]c(=O)[nH]c(=O)c1Cl [Tipiracil hydrochloride] | 1.14 | 1.25 | 0.996 | 1.31 | 0.943 | 1.64 | 1.06 | 1.43 | 0.995 | 1.14 | 1.1 | 1.31 | 1.1 | 1.17 | 1.1 | 1.24 | 1.21 | 1.04 | 1.07 | 1.05 |
| CC(=O)OC1(C(C)=O)CCC2C3C=C(C)C4=CC(=O)CCC4(C)C3CCC21C (stereo not given) [Megestrol Acetate] | 0.609 | 0.88 | 0.589 | 0.959 | 0.511 | 0.838 | 0.462 | 0.744 | 0.498 | 0.917 | 0.403 | 0.529 | 0.348 | 0.538 | 0.244 | 0.409 | 0.182 | 0.321 | 0.166 | 0.423 |
| C=C1CCC2C(C)(COC(=O)CCC(=O)O)C(OC(=O)CCC(=O)O)CCC2(C)C1/C=C/C1=CCOC1=O (stereo not given) [Dehydroandrographolide Succinate] | 0.938 | 0.719 | 0.965 | 0.638 | 0.889 | 0.722 | 0.843 | 0.872 | 0.787 | 0.901 | 0.9 | 0.848 | 0.889 | 0.703 | 0.787 | 0.72 | 0.863 | 0.874 | 0.867 | 0.824 |
| Cc1nc(Nc2ncc(C(=O)Nc3c(C)cccc3Cl)s2)cc(N2CCN(CCO)CC2)n1.O [Dasatinib Monohydrate] | 0.903 | 0.91 | 0.84 | 0.993 | 0.803 | 0.956 | 0.685 | 1.11 | 0.714 | 0.908 | 0.603 | 0.403 | 0.199 | 0.447 | 0.223 | 0.438 | 0.18 | 0.355 | 0.179 | 0.402 |
| O=C(O)c1ccccc1Nc1cccc(C(F)(F)F)c1 [Flufenamic acid] | 1.22 | 0.712 | 1.02 | 0.691 | 0.893 | 0.923 | 0.847 | 0.883 | 0.827 | 0.864 | 0.949 | 0.775 | 0.911 | 0.739 | 0.824 | 0.827 | 0.844 | 0.814 | 0.846 | 0.718 |
| CS(=O)(=O)c1ccc(C(=O)Nc2ccc(Cl)c(-c3ccccn3)c2)c(Cl)c1 [Vismodegib (GDC-0449)] | 1.18 | 1.04 | 1.34 | 1.17 | 1.2 | 1.29 | 1.24 | 0.792 | 0.976 | 0.927 | 1.01 | 0.93 | 1.51 | 0.951 | 1.1 | 0.991 | 1.12 | 0.748 | 0.924 | 0.958 |
| COC1CC2CCC(C)C(O)(O2)C(=O)C(=O)N2CCCCC2C(=O)OC(C(C)CC2CCC(OCCO)C(OC)C2)CC(=O)C(C)/C=C(\C)C(O)C(OC)C(=O)C(C)CC(C)/C=C/C=C/C=C/1C (stereo not given) [Everolimus (RAD001)] | 0.954 | 1.06 | 1 | 1.14 | 0.872 | 1.09 | 0.999 | 0.987 | 0.993 | 0.998 | 0.775 | 1.15 | 0.789 | 1.32 | 0.642 | 1.27 | 0.692 | 1.18 | 0.619 | 1.26 |
| CC1CC2C(C(O)CC3(C)C2CCC3(O)C(=O)CO)C2(C)C=CC(=O)C=C12 (stereo not given) [Methylprednisolone] | 0.664 | 1.19 | 0.976 | 1.06 | 1.2 | 0.814 | 1.39 | 0.811 | 0.568 | 1.56 | 0.0851 | 0.556 | 0.154 | 0.341 | 0.0863 | 0.258 | 0.0785 | 0.257 | 0.0669 | 0.212 |
| COc1cc(C2Oc3ccc(C4Oc5cc(O)cc(O)c5C(=O)C4O)cc3OC2CO)ccc1O (stereo not given) [Silymarin] | 0.915 | 1.68 | 1.05 | 1.79 | 1.63 | 1.34 | 1.69 | 1.34 | 1.28 | 1 | 1.11 | 1.42 | 1.03 | 1.23 | 1.05 | 1.2 | 1.03 | 1.22 | 1.12 | 0.882 |
| NC(=S)N/N=C/c1ncccc1N [Triapine] | 0.861 | 0.9 | 0.868 | 0.973 | 0.841 | 1.75 | 1.11 | 1.74 | 1.12 | 1.41 | 0.832 | 1.61 | 0.523 | 2.36 | 0.867 | 2.1 | 0.331 | 1.2 | 0.331 | 1.13 |
| CN(N=O)C(=O)NC1C(O)OC(CO)C(O)C1O (stereo not given) [Streptozotocin (STZ)] | 0.774 | 1.07 | 0.873 | 1.1 | 0.717 | 0.962 | 0.847 | 0.876 | 0.795 | 0.914 | 0.806 | 1.05 | 1.02 | 1.25 | 0.761 | 0.984 | 0.914 | 0.807 | 0.989 | 0.834 |
| CN1CCC(=C2c3ccccc3CCn3c(C=O)cnc32)CC1 [Alcaftadine] | 0.87 | 0.843 | 0.963 | 0.808 | 0.961 | 0.834 | 1.01 | 1 | 0.859 | 0.95 | 0.973 | 0.827 | 0.915 | 0.704 | 0.871 | 0.82 | 0.943 | 0.966 | 0.975 | 0.909 |
| O=C(c1ccc(F)c(F)c1Nc1ccc(I)cc1F)N1CC(O)(C2CCCCN2)C1 (stereo not given) [Cobimetinib (GDC-0973, RG7420)] | 1.17 | 1.51 | 1.05 | 2.05 | 1.17 | 2.54 | 1.67 | 2.51 | 3.63 | 2.91 | 0.532 | 0.76 | 0.211 | 0.746 | 0.267 | 0.489 | 0.0504 | 0.248 | 0.0843 | 0.288 |
| COc1cc2c(Nc3ccc(Br)cc3F)ncnc2cc1OCC1CCN(C)CC1 [Vandetanib (ZD6474)] | 1.27 | 1.11 | 1.09 | 1.22 | 0.955 | 1.43 | 0.979 | 1.34 | 0.899 | 0.908 | 1.23 | 1.46 | 1.06 | 1.04 | 1.02 | 1.17 | 1.01 | 0.833 | 1.01 | 0.717 |
| CN1C(=O)/C(=C2/C(=O)Nc3ccccc32)c2ccccc21 [Meisoindigo] | 1.01 | 1.24 | 0.795 | 1.03 | 0.875 | 1.01 | 0.773 | 0.985 | 0.792 | 1.08 | 0.842 | 0.805 | 0.457 | 0.456 | 0.396 | 0.45 | 0.306 | 0.275 | 0.333 | 0.4 |
